Counter-ions that a name gives are not always drawn. The name of at least one read-out is uncertain.
Test system: passive cutaneous anaphylaxis (PCA) reaction
Assay: 48-hour homologous PCA (passive cutaneous anaphylaxis) test in rats, antiallergic activity
Format: in vivo, male Wistar strain rats
Conditions: positive = inhibition rate 50% or higher
Procedure: The 48-hour homologous PCA (passive cutaneous anaphylaxis) test was employed. As test animals, male Wistar strain rats weighing 180 to 220 g were used for preparation of antiserum and those weighing 120 to 140 g for PCA test.
(A) Preparation of rat antiserum to EWA
Rat antiserum to egg white albumin (EWA) was prepared by the method of Stotland Share [Canad. J. Physiol. Pharmacol. 52, 1114 (1974)] as follows. One mg of EWA was mixed with 20 mg of aluminum hydroxide gel and 0.5 ml of pertussis/diphtheria/tetanus mixed vaccine, and the mixture was subcutaneously injected to each rat through the sole in four portions. After 14 days, blood samples were taken from the carotid artery, and the serum was separated and stored at -80° C. The 48-hour homologous PCA titer of this antiserum was 1:32.
(B) 48-hour homologous PCA test in rats
Three rats for each group were employed for 48-hour homologous PCA test. Rats were passively sensitized by injecting intradermally at the two spots on the shaved back 0.05 ml portions of the antiserum which was diluted 8-fold with physiological saline. After 47 hours, test compounds or the solutions thereof (physiological saline solution or CMC solution) were orally administered to the rats, and after one hour, the animals were injected intraveneously to tail vein 0.5 ml/100 g body weight of saline containing 2 mg of EWA, together with 1% Evans blue. Thirty minutes after antigen challenge, the rats were sacrificed by exanguination, and the skin was cut out, followed by the evaluation of the intensity of PCA reaction by expressing the amounts of dye leaked. The amounts of dye leaked from the blue-stained section were measured by the metod of Katayama, et al [Microbiol. Immunol. 22, 89 (1978)] as follows. A portion of the blue-stained section cut out with scissors was placed in a test tube containing 1 ml of 1N KOH solution, and incubated at 37° C. for 24 hours. 9 ml of a mixture of 0.6N phosphoric acid and acetone (5:13) was added, and the mixture was shaken and subjected to centrifugation at 2500 rpm for 10 minutes. Then, the absorbance of the supernatant liquid at 620 mμ was measured, and the amount of eluted dye was determined by using a calibration curve previously prepared. The average of the measurements for the two positions was taken as the value for each individual, and the inhibition rate for each rat was calculated from the following formula: [formula]
PCA inhibiting activity was evaluated as positive when the inhibition rate was 50% or higher, and the minimum dose required to achieve positive result for at least one among the three rats in each group was taken as the minimum effective dose (MED).

Structure (SMILES) | Antiallergic Activity, Number of Positive Rats (among three in each group) (dose 0.1 mg/Kg oral) | Antiallergic Activity, Number of Positive Rats (among three in each group) (dose 1 mg/Kg oral) | Antiallergic Activity, Number of Positive Rats (among three in each group) (dose 10 mg/Kg oral, 10 mg/kg) | Antiallergic Activity, Number of Positive Rats (among three in each group) (dose 50 mg/Kg oral) | Antiallergic Activity, Number of Positive Rats (among three in each group) (dose 10 mg/Kg oral) | Antiallergic Activity, Number of Positive Rats (among three in each group) (dose 0.1 mg/Kg oral, 0.1 mg/kg) | Antiallergic Activity, Number of Positive Rats (among three in each group) (dose 1 mg/Kg oral, 1 mg/kg)
CN1CCN(C2c3ccccc3COc3ccc(C(=O)O)cc32)CC1 (stereo not drawn) [Compound 3, 11-(4-Methylpiperazino)-6,11-dihydrodibenz[b,e]oxepin-2-carboxylic acid diacetate.2H2 O] | 0 | 1 | 3 | 3 |  |  | 
CN1CCN(C2c3ccccc3COc3ccc(C(N)=O)cc32)CC1 (stereo not drawn) [Compound 4, 11-(4-Methylpiperazino)-6,11-dihydrodibenz[b,e]oxepin-2-carboamide] |  |  |  | 3 | 1 |  | 
CN1CCN(C2c3ccccc3COc3ccc(-c4nnn[nH]4)cc32)CC1 (stereo not drawn) [Compound 6, 11-(4-Methylpiperazino)-2-(5-tetrazolyl)-6,11-dihydrodibenz[b,e]oxepin Na salt] | 0 | 0 |  | 1 | 1 |  | 
CCOC(=O)c1ccc2c(c1)C(SCCN(C)C)c1ccccc1CO2 (stereo not drawn) [Compound 7, 11-(N,N--dimethylaminoethyl)thio-6,11-dihydrodibenz[b,e]oxepin-2-carboxylic acid ethyl ester] |  |  |  | 3 | 1 |  | 
CN(C)CCSC1c2ccccc2COc2ccc(C(=O)O)cc21 (stereo not drawn) [Compound 8, 11-(N,N--dimethylaminoethyl)thio-6,11-dihydrodibenz[b,e]oxepin-2-carboxylic acid acetate] |  |  | 1 | 1 |  | 0 | 0
CN(C)CCSC1c2ccccc2COc2ccc(C#N)cc21 (stereo not drawn) [Compound 10, 11-(N,N--dimethylaminoethyl)thio-6,11-dihydrodibenz[b,e]oxepin-2-carbonitrile] | 0 | 2 |  |  | 3 |  | 
CCOC(=O)c1ccc2c(c1)C(OCCN(C)C)c1ccccc1CO2 (stereo not drawn) [Compound 11, 11-(N,N--dimethylaminoethyl)oxy-6,11-dihydrodibenz[b,e]oxepin-2-carboxylic acid ethyl ester] | 0 | 1 |  | 2 | 3 |  | 
CN(C)CCNC1c2ccccc2COc2ccc(C(N)=O)cc21 (stereo not drawn) [Compound 14, 11-(N,N--dimethylaminoethyl)amino-6,11-dihydrodibenz[b,e]oxepin-2-carboamide] | 0 | 1 |  | 3 | 2 |  | 
CCOC(=O)c1ccc2c(c1)C(NC1CN3CCC1CC3)c1ccccc1CO2 (stereo not drawn) [Compound 17, 11-(3-Quinuclidinyl)amino-6,11-dihydrodibenz[b,e]oxepin-2-carboxylic acid ethyl ester] | 1 | 2 |  | 3 | 3 |  | 
CCOC(=O)OC(C)OC(=O)c1ccc2c(c1)C(N1CCN(C)CC1)c1ccccc1CO2 (stereo not drawn) [Compound 19, 11-(4-Methylpiperazino)-6,11-dihydrodibenz[b,e]oxepin-2-carboxylic acid (1-ethoxycarbonyloxy)ethyl ester] | 0 | 2 |  | 3 | 1 |  | 
CCOC(=O)OC(C)OC(=O)c1ccc2c(c1)C(SCCN(C)C)c1ccccc1CO2 (stereo not drawn) [Compound 20, 11-(N,N--dimethylaminoethyl)thio-6,11-dihydrodibenz[b,e]oxepin-2-carboxylic acid (1-ethoxycarbonyloxy)ethyl ester] | 1 | 3 |  | 3 | 3 |  | 
CN1CCN(C2c3ccccc3COc3ccc(C(=O)O)cc32)CC1 (stereo not drawn) [Compound 21, 11-(4-Methylpiperazino)-6,11-dihydrodibenz[b,e]oxepin-2-carboxylic acid dihydrochloride.1/4H2 O] | 0 | 1 | 2 |  |  |  | 
CN(C)CCSC1c2ccccc2COc2ccc(C(=O)O)cc21 (stereo not drawn) [Compound 22, 11-(N,N--dimethylaminoethyl)thio-6,11-dihydrodibenz[b,e]oxepin-2-carboxylic acid hydrochloride.1/2H2 O] |  |  | 3 |  |  | 1 | 3

— US4596804A, “Dibenz[b,e]oxepin compounds” (Kyowa Hakko Kogyo Co., Ltd., priority 1983, dated 1986)
